This is an account of results in ChEMBL document CHEMBL5308541, “MAIP: An Open-Source Tool to Enrich High-Throughput Screening Output and Identify Novel, Druglike Molecules with Antimalarial Activity” (ACS Med Chem Lett, 2023).

The campaign covered roughly 150,000 compounds. About 540 (0.36%) showed an effect of 50% or more. The list shows a part of the results.

In this assay the test system is Plasmodium falciparum. Description: Primary screen in NF54 nanoGlo assay, in single point, at 2uM, 72h; a lower Z score goes with more inhibition. The class given is functional, Erythrocyte. The settings on record: timepoint 72 hour.
For the compound `Fc1ccccc1CN1CCC[C@H](NCc2ccc(C#Cc3cncnc3)cc2)C1`, the “% Inhibition” value is recorded as -9% and the Z score is given as 1.58.

Regarding `Cc1cc2cc(C(=O)N(C)Cc3cccc4ncccc34)ccc2o1`, the “% Inhibition” value is -2% and the Z score came out at 0.41.

Turning to `O=C(Cc1c[nH]c2ccccc12)Nc1ccc(-n2cccn2)cc1C(F)(F)F`, the “% Inhibition” value is recorded as -5% and the Z score worked out at 0.73.

For `Brc1cccc2c(-c3ccc4ncccc4c3)n[nH]c12`, the “% Inhibition” value is on record as -8% and the Z score came to 1.23.

Consider `Cc1cc(-c2ccc(C(=O)N[C@H]3CCCN(c4cnccn4)C3)cc2)ccn1`, for which the “% Inhibition” value is reported as 7% and the Z score is -1.31.

Turning to `COCCC(=O)NC1COCC1Cc1ccnc2ccccc12` (stereo unspecified), the “% Inhibition” value is on record as 1% and the Z score is on record as -0.24.

`CCN(Cc1cncn1C(C)C)CC1CCN(C2CCN(C)CC2)CC1`: the “% Inhibition” value came to 16% and the Z score was -2.81.

With `CC1CN(c2ccc(Nc3ncnc4c3CCC4)cc2)CC(C)O1` (stereo unspecified), the “% Inhibition” value is -2% and the Z score stood at 0.41.

Regarding `CN(Cc1cccc2cnccc12)c1nccc(-c2cccnc2)n1`, the “% Inhibition” value is reported as -2% and the Z score stood at 0.48.

`COc1ccc(-c2cc(C(F)F)nc(NCc3ccccc3Cl)n2)cc1OC`: the “% Inhibition” value is on record as -3% and the Z score came to 0.54.

As to `N#Cc1ccc(NC2CCN(C(=O)c3csc(-c4ccsc4)n3)CC2)nc1`, the “% Inhibition” value is listed as -9% and the Z score was 1.94.

For `O=C(COc1ccc2oc3ccccc3c2c1)NCc1ccccc1Cn1ccnc1`, the “% Inhibition” value is given as -2% and the Z score stood at 0.27.

As to `Cc1cc(NC2COCC2N2CCN(C)CC2)n2nc(C)c(C)c2n1` (stereo unspecified), the “% Inhibition” value was -6% and the Z score is listed as 0.99.

`CCNc1nc(C)cc(Nc2ccc(NC(=O)Nc3ccc(F)cc3F)cc2)n1`: the “% Inhibition” value is reported as 96% and the Z score is on record as -20.77.

For `CCN(C)CCN(C)C(=O)c1ccc(-c2ccc3nccc(O)c3c2)cc1`, the “% Inhibition” value was -2% and the Z score is given as 0.36.

As for `CN(Cc1ccccc1F)C(=O)NC[C@@]1(C)CCC(=O)N1`, the “% Inhibition” value is listed as -8% and the Z score is recorded as 1.15.

Regarding `c1cc(N2CCOCC2)nc(Nc2ccc(N3CCCCC3)cc2)n1`, the “% Inhibition” value is recorded as -7% and the Z score was determined as 1.11.

In the case of `CC(C)(C)c1cnc(CCC(=O)NC2Cc3ccccc3C2O)o1` (stereo unspecified), the “% Inhibition” value is on record as -3% and the Z score was 0.53.

Turning to `COCCN1CC[C@H](CNCc2ccc3c(c2)OC(F)(F)O3)C1`, the “% Inhibition” value came out at 7% and the Z score is -1.09.

With `Cc1nc2c(C)cccc2c(O)c1CC[C@H](C)NCCCn1ccnc1C`, the “% Inhibition” value was -7% and the Z score was found to be 1.

As to `O=C(c1ccc2[nH]ncc2c1)N1CC[C@H](Oc2cccnc2N2CCCC2)C1`, the “% Inhibition” value is given as -3% and the Z score came to 0.68.

On to `Cc1nc2cc(OCc3nc(C(=O)N4CCC(=O)NC[C@@H]4C)co3)ccc2s1`, for which the “% Inhibition” value is -3% and the Z score is on record as 0.48.

As to `Cc1ccc(Oc2cccc(C(=O)NCCNc3cc(-n4cccn4)ncn3)c2)nn1`, the “% Inhibition” value is recorded as -6% and the Z score is reported as 1.27.

As for `CN1CCN(CC2CN(Cc3nc4ccccc4[nH]3)CC2CO)CC1` (stereo unspecified), the “% Inhibition” value was -11% and the Z score came to 1.82.

Regarding `Cc1cc(NCc2ccnc(O[C@H]3CCOC3)c2)nc(-c2ccncc2)n1`, the “% Inhibition” value is listed as -6% and the Z score is on record as 1.04.

For `Cc1ccc2c(c1)c(CNC(=O)CCc1nc3cc(C)c(C)cc3[nH]1)nn2C`, the “% Inhibition” value is reported as -10% and the Z score was 1.45.

As for `COC1CN(C(=O)c2cc(-c3ccccc3)nn2C)CC1Cc1cc(C)no1` (stereo unspecified), the “% Inhibition” value is recorded as -6% and the Z score was 1.31.

As to `Cc1nsc(NCc2cc(C(F)(F)F)on2)n1`, the “% Inhibition” value was -2% and the Z score is 0.27.

As for `CC(C)Oc1cccc(F)c1-c1ccccc1CN1CCNCC1`, the “% Inhibition” value was -17% and the Z score turned out to be 2.59.

Consider `O=C(CCC(=O)N1CCCCCC1)NCc1nc2cc(F)ccc2[nH]1`, for which the “% Inhibition” value is given as -8% and the Z score stood at 1.3.

As to `COc1cnc(-c2nc(-c3ccc(Oc4cccc(N(C)C)c4)cc3)no2)c(F)c1`, the “% Inhibition” value was -11% and the Z score stood at 1.89.

`O=C(NCCc1c[nH]c2cc(Cl)ccc12)N1CCC[C@@H]1CN1CCOCC1`: the “% Inhibition” value was -13% and the Z score stood at 2.03.

As to `CCc1ccc(CN(C)C(=O)C2(C)CCC(C(=O)N(C)C)C2(C)C)nc1` (stereo unspecified), the “% Inhibition” value was 1% and the Z score is given as -0.14.

Consider `CCc1nnc(CNC(=O)c2cnn3ccn(C)c23)o1`, for which the “% Inhibition” value is -11% and the Z score amounted to 2.46.

For `Cc1cc(NCC2(Nc3ccccc3)CCCCC2)c2ccccc2n1`, the “% Inhibition” value amounted to 17% and the Z score is listed as -2.51.

With `Cc1[nH]c2ccc(F)cc2c1CC(=O)N1C2CCNCC1CC2` (stereo unspecified), the “% Inhibition” value turned out to be 6% and the Z score is -1.17.

As to `Cc1nn(C)c(C)c1CN(CCO)CC(=O)Nc1cccc(F)c1C`, the “% Inhibition” value is -11% and the Z score is recorded as 2.41.

In the case of `C[C@H](Nc1nccc(N2CCOCC2)n1)c1ccc2ccccc2c1`, the “% Inhibition” value is listed as -5% and the Z score is reported as 0.93.

`O=C(Cc1c[nH]c2cc(F)ccc12)Nc1ccc(-c2nnco2)cc1`: the “% Inhibition” value is listed as -4% and the Z score is given as 0.89.

Turning to `CNC(=O)C[C@H](C)N(C)C(=O)c1cccc(-c2cnc3[nH]ccc3c2)c1`, the “% Inhibition” value is -3% and the Z score came to 0.48.

For the compound `Cc1ccc(CN2CCCN(c3cccnn3)CC2)c(-c2cnn(C)c2)c1`, the “% Inhibition” value turned out to be 1% and the Z score is listed as -0.18.

As to `CC(C)CC(=O)[C@H]1CCCN(C(=O)c2ccc(NCC3CCN(C)CC3)nc2)C1`, the “% Inhibition” value is -3% and the Z score is 0.58.

Regarding `CC(=O)N1CCC[C@H](CNc2nccc(-c3c(C)nn(C)c3C)n2)C1`, the “% Inhibition” value is recorded as -3% and the Z score is listed as 0.4.

For the compound `O=C(CCc1ccsc1)N1CCN(c2ncnc3ccccc23)CC1`, the “% Inhibition” value was -7% and the Z score amounted to 1.15.

Consider `NC(=O)CN1CCC(Nc2nc(N)nc3[nH]cnc23)CC1`, for which the “% Inhibition” value came out at 3% and the Z score was -0.55.

Regarding `CCOc1ccc(C2CN(C(C)=O)C(c3ccc(Cl)cc3)c3[nH]c4ccccc4c32)cc1OC` (stereo unspecified), the “% Inhibition” value is listed as -6% and the Z score was determined as 0.87.

Regarding `c1cc(OCCN2CCCC2)ccc1CN[C@H]1CCCC2(C1)N=N2`, the “% Inhibition” value was -7% and the Z score worked out at 1.12.

For the compound `CC1CN(c2ccccc2CN[C@@H](C)C(=O)OC(C)(C)C)CCO1` (stereo partly specified), the “% Inhibition” value was found to be 0% and the Z score is given as 0.05.

Consider `CC(C)(C)[C@@H]1CN(S(=O)(=O)c2cnn3c2OCCC3)CCO1`, for which the “% Inhibition” value is -16% and the Z score worked out at 3.21.

Turning to `O=C(Oc1ccc2ncccc2c1)C1(c2ccc(F)cc2)CCC1`, the “% Inhibition” value is given as -4% and the Z score worked out at 0.74.

As for `c1c(NCCCOC2CCOC2)nc(NCCCOC2CCOC2)nc1C1CC1` (stereo unspecified), the “% Inhibition” value is recorded as 12% and the Z score is -2.68.

In the case of `CCN(CC)CCNC(=O)COc1ccc(-c2ccc3c(c2)OCO3)cc1CN1CCC[C@H](C)C1`, the “% Inhibition” value amounted to 3% and the Z score was -0.59.

Consider `c1ccc(N2CC[C@H](NCc3ccccc3N3CCOCC3)C2)nc1`, for which the “% Inhibition” value stood at 6% and the Z score is on record as -0.99.

As usually defined, the % Inhibition is the change of the read-out against control, counted positive when it falls.
